Experimental data: publication PMC10645070
These are yes or no findings as the source states them, for the method shown. Binding seen in cells or lysates may run through a third protein. Some results given as binding are weak or reduced against the parent protein; the word gives no strength.

Protein sequences, listed by entry. Tags and fused reporters are not part of them. Lines headed by an entry give the natural chain unless they say otherwise; changes in a name come on top. Residues count along the entry.
UniProt P08050: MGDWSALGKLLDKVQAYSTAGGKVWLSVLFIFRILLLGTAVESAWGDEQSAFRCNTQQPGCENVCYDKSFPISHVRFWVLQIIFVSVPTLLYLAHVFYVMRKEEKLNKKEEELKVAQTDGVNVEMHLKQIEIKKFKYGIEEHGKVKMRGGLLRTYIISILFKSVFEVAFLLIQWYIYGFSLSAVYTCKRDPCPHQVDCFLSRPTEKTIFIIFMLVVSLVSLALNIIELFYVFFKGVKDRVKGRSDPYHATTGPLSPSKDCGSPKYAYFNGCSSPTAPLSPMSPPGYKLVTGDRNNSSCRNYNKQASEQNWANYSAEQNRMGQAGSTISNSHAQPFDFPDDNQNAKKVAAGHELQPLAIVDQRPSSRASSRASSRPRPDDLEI
Cx43 lacking the entire C-terminal region (K258stop, Cx43^ΔCT): residues 1-257 of P08050
UniProt Q14974: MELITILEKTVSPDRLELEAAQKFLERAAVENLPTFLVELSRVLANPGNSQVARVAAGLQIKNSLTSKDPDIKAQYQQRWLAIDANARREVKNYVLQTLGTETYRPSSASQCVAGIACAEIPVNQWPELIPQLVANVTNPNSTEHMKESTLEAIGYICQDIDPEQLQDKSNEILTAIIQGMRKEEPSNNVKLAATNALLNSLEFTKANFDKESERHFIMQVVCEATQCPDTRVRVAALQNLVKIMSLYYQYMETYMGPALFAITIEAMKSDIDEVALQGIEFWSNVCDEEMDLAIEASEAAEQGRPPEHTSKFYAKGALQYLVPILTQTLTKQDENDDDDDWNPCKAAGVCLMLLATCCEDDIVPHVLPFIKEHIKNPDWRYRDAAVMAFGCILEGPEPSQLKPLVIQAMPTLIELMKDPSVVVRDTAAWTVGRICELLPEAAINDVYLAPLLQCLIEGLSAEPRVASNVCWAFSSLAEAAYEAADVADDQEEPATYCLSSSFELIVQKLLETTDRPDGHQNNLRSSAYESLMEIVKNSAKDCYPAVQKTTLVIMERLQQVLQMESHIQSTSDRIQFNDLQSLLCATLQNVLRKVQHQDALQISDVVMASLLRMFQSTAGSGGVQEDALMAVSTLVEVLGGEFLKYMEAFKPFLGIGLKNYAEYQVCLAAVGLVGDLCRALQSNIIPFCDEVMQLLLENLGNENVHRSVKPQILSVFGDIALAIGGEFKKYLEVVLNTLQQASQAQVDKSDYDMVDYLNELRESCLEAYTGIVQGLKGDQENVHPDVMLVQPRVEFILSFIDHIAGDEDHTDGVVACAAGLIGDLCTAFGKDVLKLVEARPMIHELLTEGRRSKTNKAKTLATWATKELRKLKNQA
UniProt P67809: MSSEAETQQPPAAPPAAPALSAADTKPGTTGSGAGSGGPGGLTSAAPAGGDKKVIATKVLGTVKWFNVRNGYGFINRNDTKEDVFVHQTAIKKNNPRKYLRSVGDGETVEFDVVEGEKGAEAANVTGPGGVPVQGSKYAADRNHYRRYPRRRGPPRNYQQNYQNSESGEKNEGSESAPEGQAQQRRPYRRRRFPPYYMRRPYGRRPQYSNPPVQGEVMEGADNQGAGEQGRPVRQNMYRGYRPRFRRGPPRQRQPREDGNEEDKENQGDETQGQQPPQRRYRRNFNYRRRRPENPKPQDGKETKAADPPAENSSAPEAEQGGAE

What was measured:
[1] = molecular target: Connexin43 (Cx43) of rat origin, stably expressed in HEK293 cells (HEK293^Cx43+) (rat) (UniProt P08050); test: co-IP; Cx43 immunoprecipitated (goat anti-Cx43 AB0016, RIPA buffer with 0.5% TX100) from whole-cell extracts; WB
[2] = molecular target: Cx43 lacking the entire C-terminal region (K258stop, Cx43^ΔCT) (rat) (UniProt P08050); test: co-IP; cells expressing Cx43^ΔCT (K258stop); interaction with Importin-β (figure S4f); antibody and extract not told
[3] = molecular target: V5-tagged full-length Cx43 (Cx43^WT), transiently expressed in HEK293^Cx43− cells (rat) (UniProt P08050); test: co-IP; V5 immunoprecipitated from whole-cell extracts of HEK293^Cx43− cells transfected with V5-tagged Cx43^WT or Cx43^ΔNLS for 24 h; WB for Importin-β
[4] = molecular target: Connexin43 (Cx43) of rat origin, stably expressed in HEK293 cells (HEK293^Cx43+) (rat) (UniProt P08050); test: co-IP; Cx43 immunoprecipitated (goat anti-Cx43 AB0016, protein G Sepharose, RIPA buffer with 0.5% TX100, overnight at 4°C) from purified nuclear extracts of HEK293^Cx43+ cells; WB
[5] = molecular target: Connexin43 (Cx43) of rat origin, stably expressed in HEK293 cells (HEK293^Cx43+) (rat) (UniProt P08050); test: co-IP; interaction of Cx43 with Importin-β after treatment of cells with 1 mM dbcAMP (promoted), 2 µM WAY-262611 (increased), 30 µM BI5521 (no change) or 5 µM Brefeldin A (decreased); extract not told (figures S5a, S6d)

| Molecule | binding [1] | binding [2] | binding [3] | binding [4] | binding [5] |
| --- | --- | --- | --- | --- | --- |
| Importin-β/karyopherin-β1 (from UniProt Q14974 1-876) | binds | no binding | binds | binds | binds |
| Y-box-binding protein 1 (YBX1), endogenous (from UniProt P67809 1-324) | – | – | – | binds | – |
| myc-YBX1 (from UniProt P67809 1-324) | – | – | – | binds | – |
| SNW domain-containing protein 1 (SNW1) (protein, UniProt Q13573 1-536) MALTSFLPAPTQLSQDQLEAEEKARSQRSRQTSLVSSRREPPPYGYRKGWIPRLLEDFGDGGAFPEIHVAQYPLDMGRKKKMSNALAIQVDSEGKIKYDAIARQGQSKDKVIYSKYTDLVPKEVMNADDPDLQRPDEEAIKEITEKTRVALEKSVSQKVAAAMPVRAADKLAPAQYIRYTPSQQGVAFNSGAKQRVIRMVEMQKDPMEPPRFKINKKIPRGPPSPPAPVMHSPSRKMTVKEQQEWKIPPCISNWKNAKGYTIPLDKRLAADGRGLQTVHINENFAKLAEALYIADRKAREAVEMRAQVERKMAQKEKEKHEEKLREMAQKARERRAGIKTHVEKEDGEARERDEIRHDRRKERQHDRNLSRAAPDKRSKLQRNENRDISEVIALGVPNPRTSNEVQYDQRLFNQSKGMDSGFAGGEDEIYNVYDQAWRGGKDMAQSIYRPSKNLDKDMYGDDLEARIKTNRFVPDKEFSGSDRRQRGREGPVQFEEDPFGLDKFLEEAKQHGGSKRPSDSSRPKEHEHEGKKRRKE | – | – | – | binds | – |
